Source: the supplement of paper PMC3334620
Over roughly 33,000 sequences, “E-score (-0.5 to 0.5)” has its median near -0.043; the highest 2% begin near 0.37. The list shows a part of the results.

What follows are sequences tested against T1, Upc2 (UniProt Q12151) (assay: PBM E-score (8-mer binding enrichment) (E-score (-0.5 to 0.5)); higher = stronger / more preferred TF binding; most listed sequences are background and not binding sites). Conditions: protein concentration: 200 nM; construct: GST-full length.
T1 sequence: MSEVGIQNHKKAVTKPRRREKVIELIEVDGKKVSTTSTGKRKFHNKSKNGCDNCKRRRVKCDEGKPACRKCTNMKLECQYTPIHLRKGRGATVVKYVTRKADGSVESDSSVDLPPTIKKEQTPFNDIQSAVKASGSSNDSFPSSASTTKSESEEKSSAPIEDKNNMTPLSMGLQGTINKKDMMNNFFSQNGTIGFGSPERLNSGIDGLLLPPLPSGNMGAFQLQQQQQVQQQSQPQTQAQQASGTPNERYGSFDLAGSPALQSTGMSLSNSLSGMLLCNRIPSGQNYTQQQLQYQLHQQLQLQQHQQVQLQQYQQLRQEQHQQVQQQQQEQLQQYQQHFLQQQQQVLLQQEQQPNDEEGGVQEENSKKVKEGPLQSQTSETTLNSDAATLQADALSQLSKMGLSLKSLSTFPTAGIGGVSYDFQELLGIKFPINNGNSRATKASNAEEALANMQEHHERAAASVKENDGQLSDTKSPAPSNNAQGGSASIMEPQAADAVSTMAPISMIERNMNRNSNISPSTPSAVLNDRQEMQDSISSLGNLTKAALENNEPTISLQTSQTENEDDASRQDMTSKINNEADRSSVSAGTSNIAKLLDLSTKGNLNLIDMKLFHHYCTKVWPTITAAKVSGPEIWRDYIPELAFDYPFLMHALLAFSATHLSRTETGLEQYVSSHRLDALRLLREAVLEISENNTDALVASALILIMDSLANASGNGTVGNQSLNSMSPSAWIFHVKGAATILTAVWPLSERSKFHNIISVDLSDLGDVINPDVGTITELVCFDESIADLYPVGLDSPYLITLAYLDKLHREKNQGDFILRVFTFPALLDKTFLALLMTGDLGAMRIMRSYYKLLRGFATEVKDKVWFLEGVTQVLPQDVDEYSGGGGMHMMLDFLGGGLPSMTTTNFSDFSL
Procedure, shortened: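 The E-score, a modified Wilcoxon-Mann-Whitney statistic, was computed by the Universal PBM Analysis Suite for every ungapped eight-base word pooled with its reverse complement. Scans behind it were normalised with masliner after bound GST-tagged yeast transcription factors were detected with fluorescent anti-GST. The proteins, at about 100-200 nM, had been applied to universal all-10-mer Agilent arrays made double-stranded by primer extension.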

| Sequence | PBM E-score |
| --- | --- |
| GGTGACTA | -0.0935 |
| CCTGATGC | -0.111 |
| AACCCATT | -0.0446 |
| CCCCGCAG | -0.11 |
| CCTCTATA | -0.0193 |
| ACGAAAAA | 0.262 |
| CCGGCACG | 0.0245 |
| GGGTCCCA | -0.0876 |
| CGGCTAAG | -0.099 |
| AAAGCTAG | -0.172 |
| CTCGAGGC | -0.0827 |
| CGAAGCCC | 0.0445 |
| GGCCACAA | -0.151 |
| AAGCAGTG | -0.25 |
| GAAACGGA | 0.199 |
| CGCAGGCC | -0.148 |
| CGCAGCGA | 0.0366 |
| CGCGCGTC | 0.116 |
| ATTGTCGC | -0.0879 |
| ATATGAGG | -0.253 |
| AACGCGTG | 0.179 |
| CTTCCTCC | -0.22 |
| AGGTTCAG | -0.0682 |
| CTTAAAAA | 0.0534 |
| AAGTCACC | -0.0173 |

| Sequence | PBM E-score |
| --- | --- |
| CTAAGCTA | 0.015 |
| ACTGCTCC | -0.196 |
| AGTCGGGC | 0.0212 |
| GGAGCTGA | -0.206 |
| CATGGACG | -0.144 |
| CGCGCCGC | -0.129 |
| CTGTGCCA | -0.224 |
| CGCTCCCG | 0.208 |
| ACCAACCC | -0.0466 |
| ACGTCGGA | 0.0678 |
| ACAGCTGA | -0.154 |
| AGAATTAT | -0.0708 |
| CGAAATCG | 0.0818 |
| CTTAGATC | -0.0871 |
| CTGAACAA | 0.115 |
| CCTCCGAG | -0.0728 |
| TGCAAGAA | -0.0985 |
| GAATGGAA | -0.0173 |
| GGATCGGA | 0.0439 |
| AAGGGTAA | -0.11 |
| GATGGTCA | -0.204 |
| AAATCAGG | -0.118 |
| CCAGAGGA | -0.256 |
| ACACGAGG | 0.248 |
| CCGAACGC | 0.0534 |

| Sequence | PBM E-score |
| --- | --- |
| CTGCTAAA | -0.0352 |
| GCGGGACA | -0.109 |
| AGTTACAT | -0.223 |
| CGTGGCGC | -0.0595 |
| AGCGTCTG | -0.0504 |
| ACCCTTAG | -0.238 |
| TATTCAGA | -0.00637 |
| ATCGTTCC | 0.43 |
| AAACGTAA | 0.226 |
| ATATCACA | -0.0617 |
| AGATGGTA | 0.00604 |
| CAAGGGAC | -0.365 |
| CACGGGTA | -0.0321 |
| ACCGTGCT | -0.178 |
| GGACCGCC | -0.147 |
| CGCTCGAC | -0.0799 |
| TCGGATCA | 0.112 |
| CTCCTGAC | -0.332 |
| CAGGTATG | -0.0943 |
| AGTATTGG | -0.176 |
| CAGTAAGG | -0.179 |
| CTTAGCGC | 0.126 |
| AAACGAAT | 0.451 |
| AGAACGAC | 0.391 |
| AAAGTCAC | 0.0807 |

| Sequence | PBM E-score |
| --- | --- |
| CCACATAG | -0.134 |
| TCACTACA | -0.0635 |
| CCCCCTAA | -0.13 |
| AAAAAGCA | -0.0159 |
| GAGTTCAC | 0.0452 |
| TACCAATA | -0.0536 |
| AAAGGATG | -0.00713 |
| CAGCCAAG | -0.219 |
| AACTGGGG | -0.272 |
| ATGTAACG | 0.144 |
| AAAGACAC | 0.0363 |
| ATACTACC | 0.00202 |
| CCCTTTCG | -0.0783 |
| AACTTCAC | 0.157 |
| AGGCTAGC | -0.192 |
| AGTTCTAG | -0.155 |
| AGTCATAG | -0.196 |
| TAAGAGAA | 0.138 |
| TGAACACA | 0.0855 |
| GATGGCTA | -0.0762 |
| CGAACAAC | 0.192 |
| ATAATACA | 0.087 |
| CGTCAGCC | 0.165 |
| GATGAACC | -0.0786 |
| ATAGTCCG | 0.127 |

| Sequence | PBM E-score |
| --- | --- |
| GATGGGCC | -0.0304 |
| ACCTAGGG | -0.13 |
| CTTTCGAA | -0.0138 |
| ATAGGTAC | 0.124 |
| AGACCATG | -0.232 |
| GTTAGAGA | -0.129 |
| AATTCCCA | -0.0677 |
| CTCTACTC | -0.154 |
| AAACTAGA | -0.0238 |
| AGAACTTA | -0.0298 |
| ACCGGTAA | 0.0421 |
| GTGTCGTA | 0.44 |
| GAGGAGGA | -0.0195 |
| CCCTGCCG | -0.261 |
| AATTATTG | -0.0699 |
| CTCTCAGA | -0.282 |
| ACTCGTGG | 0.0117 |
| CAGATAAC | -0.154 |
| ACCGTTAG | -0.062 |
| AGCCAATG | -0.164 |
| AATATGAC | -0.102 |
| CCTATTAA | -0.157 |
| AGAGAGGA | -0.196 |
| ATTTCTGC | 0.211 |
| CTTAAGCA | -0.14 |

| Sequence | PBM E-score |
| --- | --- |
| GCCGTACA | 0.4 |
| CCCGCATA | 0.169 |
| AAAGAGTT | -0.235 |
| AAACAACC | 0.0306 |
| GTTAGAAA | -0.0914 |
| CCGCCAAC | -0.116 |
| GTGAGAAA | -0.0421 |
| CCACGGGG | -0.232 |
| AGACTGAA | -0.0875 |
| CCCGTTCG | 0.253 |
| ACCTCCAT | -0.0728 |
| AACTTGGT | 0.117 |
| AAAGTCCG | -0.0381 |
| ACGCCTAG | 0.0201 |
| AAACGGTT | 0.325 |
| CGGGTCAC | 0.0662 |
| CGTATCAG | 0.381 |
| AGAATCGA | -0.0184 |
| CACGAGAC | 0.0139 |
| CCGAACTA | -0.0232 |
| ATTCAGAG | -0.152 |
| GTCGGTCA | 0.213 |
| CGGACAGA | 0.161 |
| GTGCGTCA | -0.262 |
| CAACTAGC | 0.103 |

| Sequence | PBM E-score |
| --- | --- |
| CTTTTAAC | 0.2 |
| GTGCCGTA | 0.344 |
| GGTACGCA | 0.252 |
| TAGATTCA | -0.00942 |
| CCCGGACA | -0.0292 |
| ATCCAGCC | -0.128 |
| CTTATGTA | -0.00714 |
| TAACGTAA | 0.207 |
| ACACGCGA | 0.156 |
| ATAAGCAA | -0.126 |
| TGAGTACA | -0.135 |
| AAGGCACT | -0.145 |
| TGAGACAA | -0.156 |
| ATGCGGTG | -0.185 |
| CCTTGAAA | -0.0231 |
| GAACCATA | -0.072 |
| CTCATTAA | -0.178 |
| TCATTGGA | -0.129 |
| CCCTATGA | -0.307 |
| CCATTGCG | -0.0582 |
| CCGGTAGC | -0.307 |
| CTCAGTTA | -0.16 |
